Assay results published in the supplement of paper PMC10338343.
± gives the standard deviation. The list shows a part of the results, in another mix than the full data.

The sequences below were run on MIWI (PIWIL1) piRISC loaded with piRNA #1 (30 nt) (assay: pre-steady-state target cleavage rate (min^-1); MIWI and MILI are mouse PIWI proteins and EfPiwi is from a freshwater sponge; tags in brackets are library labels; higher = faster piRNA-guided slicing of the target). Details: guide: piRNA #1 5'p-UGAGGUAGUAGGUUGUAUAGUAUCCAGAGG; auxiliary factor: 500 nM mouse GTSF1.
In short: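 Using HEPES–potassium acetate buffer at 33 °C, 1 nM active affinity-purified piRISC with a single synthetic guide was mixed with 0.1 nM transcribed, DNA-blocked target RNA library for 0–8 or 0–960 min, with or without 500 nM GTSF1 partner protein. Uncleaved targets were sequenced and normalised to depth and to weakly complementary targets, and three trials were pooled with k3 capped at 0.0001 min^-1. A burst-and-steady-state fit gave the pre-steady-state cleavage rate.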

In order of falling “pre-steady-state target cleavage rate” value:
1. CCUCUGAUACUAUACAACCUACUACCUCA  2.11 ± 0.12
2. CCUCUGUAUACUAUACAACCUACUACCUCA  1.83 ± 0.097
3. GGAGUGGAUACUAUGCAACCUACUACCUCA  1.62 ± 0.11
4. GGUCUGGAUACUAUACUACCUACUACCUCA  1.5 ± 0.091
5. GCAGAGGAUACUAUACAACCUACUACCUCA  1.48 ± 0.075
6. GGAGUGGUUACUUUACAACCUACUACCUCA  1.39 ± 0.11
7. CCUCUGGAUACUAUAGAUCCUACUACCUCA  1.38 ± 0.085
8. GCUCUGGAUACUAUACAACCUACAACCUCA  1.38 ± 0.087
9. GGAGUGGAUACUAACAACCUACUACCUCA  1.37 ± 0.11
10. CCUCUGGAUAGAAUACAACCUACUACCUCA  1.24 ± 0.066
11. GCUCUGGAUACUAUAAACCUACUACCUCA  1.21 ± 0.12
12. CCUCAGGAUACUAUACAACCUACUAGCUCA  1.13 ± 0.056
13. GGAGUGGAUACUAUACAACCUGCUACCUCA  1.02 ± 0.061
14. GGAGACCUAUCUAUACAACCUACUACAUCA  1.01 ± 0.072
15. GGACUGGAUACUUUACUACCUACUACCUCA  1.01 ± 0.11
16. CCUCUGGAUACUAGUACAACCUACUACCUCA  0.953 ± 0.053
17. GGUCUGGAUACUAUACAUGCUACUACCUCA  0.824 ± 0.05
18. GGACUGGAUACUAUUCAACGUACUACCUCA  0.812 ± 0.069
19. GGACUGGAUACUAUACAACCUACUAUCUCA  0.789 ± 0.087
20. CCACUGGAUACUAUACAACCUUCUACCUCA  0.709 ± 0.034
21. CCUCUGGAUACUAUACAACCUUCUACCUCA  0.706 ± 0.04
22. GCUCUGGAUACUAUACAAGCUACUUCCUCA  0.651 ± 0.043
23. CCUCUGGAUACUAUACAACCUACAUCCUCA  0.523 ± 0.038
24. GGAGACCUAACUAUACAACCUACUAGCUCA  0.509 ± 0.062
25. GCUCUGGAUACUAUACAUCCUACUUCCUCA  0.433 ± 0.046
26. GCUCUCGAUACUAUAGAACCUACUACCUCA  0.396 ± 0.045
27. GGACAGGAUACUAUACAACCUAGUACCUCA  0.394 ± 0.066
28. GGAGACCUAUCUAUACAACCUCCUACCUCA  0.391 ± 0.028
29. GGAGACCUAACUAUACAUCCUACUACCUGA  0.28 ± 0.047
30. GGAGACCUUAGUAUACAAGCUACUACCUCA  0.261 ± 0.03
31. GGACUGGAUACUAUACAACCUAGCUACCUCA  0.228 ± 0.024
32. GGAGACCUAACUAUACAACCUACUACCCA  0.186 ± 0.041
33. GGAGUGCAUACUAUACAACCAACUACCUCA  0.116 ± 0.0099
34. GGAGACCUAACGUAUACAACCUACUACCUCA  0.11 ± 0.025
35. GGAGACCAUACUAUACAACCUAGUACGUCA  0.0791 ± 0.018
36. GGAGACCUAUCUAUACAACCUAGUAGCUCA  0.00684 ± 0.0024
37. GGAGACCUAUGUAUACAACCUACUAUCUCA  0.00659 ± 0.0019
38. GGAGACCUAACUAUACAACCAACUACCUGA  0.00607 ± 0.0034
39. GGAGACCUUACAAUACAACCAACUACCUCA  0.00516 ± 0.0025
40. GGAGACCUAUGUAUACUACCUACUACGUCA  0.0024 ± 0.0022
